Source: the supplement of paper PMC8728848
The other results are listed elsewhere or left out.

How the values were obtained:
Test in all cases: glycan array binding signal (z-score within array); higher = stronger binding
Conditions in all cases: glycan notation: IUPAC condensed, linker removed
[1] = target: Gal(b1-4)GlcNAc(b1-2)[Gal(b1-4)GlcNAc(b1-4)]Man(a1-3)[Gal(b1-4)GlcNAc(b1-2)[Gal(b1-4)GlcNAc(b1-6)]Man(a1-6)]Man(b1-4)GlcNAc(b1-4)GlcNAc
How it was run: (§1)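 Arrays were curated from the Consortium for Functional Glycomics database, 3228 in total, and kept only where the protein sequence was available. Binding is expressed as a within-array Z-score. This score was averaged across arrays of the same protein sequence at different concentrations or buffers and across linkers, and negative values can be read as non-binding.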

[2] = target: Gal(b1-4)GlcNAc(b1-2)[Gal(b1-4)GlcNAc(b1-4)]Man(a1-3)[GlcNAc(b1-4)][Gal(b1-4)GlcNAc(b1-2)Man(a1-6)]Man(b1-4)GlcNAc(b1-4)GlcNAc
How it was run: as §1

[3] = target: Gal(b1-4)GlcNAc(b1-2)[Gal(b1-4)GlcNAc(b1-4)]Man(a1-3)[GlcNAc(b1-4)][Gal(b1-4)GlcNAc(b1-2)[Gal(b1-4)GlcNAc(b1-6)]Man(a1-6)]Man(b1-4)GlcNAc(b1-4)GlcNAc
How it was run: as §1

[4] = target: Gal(b1-4)GlcNAc(b1-2)[Gal(b1-4)GlcNAc(b1-4)]Man(a1-3)[GlcNAc(b1-4)][Gal(b1-4)GlcNAc(b1-2)[Gal(b1-4)GlcNAc(b1-6)]Man(a1-6)]Man(b1-4)GlcNAc(b1-4)[Fuc(a1-6)]GlcNAc
How it was run: as §1

[5] = target: Gal(b1-4)GlcNAc(b1-2)[Gal(b1-4)GlcNAc(b1-6)]Man(a1-6)[Gal(b1-4)GlcNAc(b1-2)Man(a1-3)]Man(b1-4)GlcNAc(b1-4)GlcNAc
How it was run: as §1

[6] = target: Gal(b1-4)GlcNAc(b1-2)[Gal(b1-4)GlcNAc(b1-6)]Man(a1-6)[Gal(b1-4)GlcNAc(b1-2)Man(a1-3)]Man(b1-4)GlcNAc(b1-4)[Fuc(a1-6)]GlcNAc
How it was run: as §1

[7] = target: Gal(b1-4)GlcNAc(b1-2)[Gal(b1-4)GlcNAc(b1-6)]Man(a1-6)[GlcNAc(b1-4)][Gal(b1-4)GlcNAc(b1-2)Man(a1-3)]Man(b1-4)GlcNAc(b1-4)GlcNAc
How it was run: as §1

[8] = target: Gal(b1-4)GlcNAc(b1-3)Gal(b1-3)GlcNAc
How it was run: as §1

[9] = target: Gal(b1-4)GlcNAc(b1-3)Gal(b1-4)Glc
How it was run: as §1

[10] = target: Gal(b1-4)GlcNAc(b1-3)Gal(b1-4)GlcNAc
How it was run: as §1

[11] = target: Gal(b1-4)GlcNAc(b1-3)Gal(b1-4)GlcNAc(b1-3)Gal(b1-4)GlcNAc
How it was run: as §1

[12] = target: Gal(b1-4)GlcNAc(b1-3)Gal(b1-4)[Fuc(a1-3)GlcNAc(b1-6)]Gal(b1-4)Glc
How it was run: as §1

[13] = target: Gal(b1-4)GlcNAc(b1-3)Gal(b1-4)[Fuc(a1-3)]GlcNAc(b1-3)Gal(b1-4)[Fuc(a1-3)]GlcNAc
How it was run: as §1

[14] = target: Gal(b1-4)GlcNAc(b1-3)GalNAc
How it was run: as §1

[15] = target: Gal(b1-4)GlcNAc(b1-3)[Gal(b1-4)GlcNAc(b1-6)]Gal(b1-4)GlcNAc
How it was run: as §1

[16] = target: Gal(b1-4)GlcNAc(b1-3)[Gal(b1-4)GlcNAc(b1-6)]GalNAc
How it was run: as §1

[17] = target: Gal(b1-4)GlcNAc(b1-3)[GlcNAc(b1-6)]Gal(b1-4)GlcNAc
How it was run: as §1

[18] = target: Gal(b1-4)GlcNAc(b1-6)Gal(b1-4)GlcNAc
How it was run: as §1

[19] = target: Gal(b1-4)GlcNAc(b1-6)GalNAc
How it was run: as §1

[20] = target: Gal(b1-4)GlcNAc(b1-6)[Gal(b1-3)]GalNAc
How it was run: as §1

Gal(b1-4)GlcNAc6P = target: Gal(b1-4)GlcNAc6P
How it was run: as §1

Gal(b1-6)Gal = target: Gal(b1-6)Gal
How it was run: as §1

Gal3S(b1-3)GalNAc = target: Gal3S(b1-3)GalNAc
How it was run: as §1

Gal3S(b1-3)GlcNAc = target: Gal3S(b1-3)GlcNAc
How it was run: as §1

[21] = target: Gal3S(b1-3)[Fuc(a1-4)]GlcNAc
How it was run: as §1

Gal3S(b1-4)Glc = target: Gal3S(b1-4)Glc
How it was run: as §1

Gal3S(b1-4)Glc6S = target: Gal3S(b1-4)Glc6S
How it was run: as §1

Gal3S(b1-4)GlcNAc = target: Gal3S(b1-4)GlcNAc
How it was run: as §1

Gal3S(b1-4)GlcNAc6S = target: Gal3S(b1-4)GlcNAc6S
How it was run: as §1

[22] = target: Gal3S(b1-4)[Fuc(a1-3)]Glc
How it was run: as §1

[23] = target: Gal3S(b1-4)[Fuc(a1-3)]Glc6S
How it was run: as §1

Gal3S4S(b1-4)GlcNAc = target: Gal3S4S(b1-4)GlcNAc
How it was run: as §1

Gal3S6S(b1-4)GlcNAc = target: Gal3S6S(b1-4)GlcNAc
How it was run: as §1

Gal3S6S(b1-4)GlcNAc6S = target: Gal3S6S(b1-4)GlcNAc6S
How it was run: as §1

Gal4S(b1-4)GlcNAc = target: Gal4S(b1-4)GlcNAc
How it was run: as §1

Gal4S6S(b1-4)GlcNAc = target: Gal4S6S(b1-4)GlcNAc
How it was run: as §1

Gal6P(b1-4)GlcNAc = target: Gal6P(b1-4)GlcNAc
How it was run: as §1

Gal6S(b1-3)GlcNAc = target: Gal6S(b1-3)GlcNAc
How it was run: as §1

Gal6S(b1-3)GlcNAc6S = target: Gal6S(b1-3)GlcNAc6S
How it was run: as §1

Gal6S(b1-4)Glc = target: Gal6S(b1-4)Glc
How it was run: as §1

Gal6S(b1-4)Glc6S = target: Gal6S(b1-4)Glc6S
How it was run: as §1

Gal6S(b1-4)GlcNAc = target: Gal6S(b1-4)GlcNAc
How it was run: as §1

Gal6S(b1-4)GlcNAc6S = target: Gal6S(b1-4)GlcNAc6S
How it was run: as §1

GalNAc(a1-3)Gal = target: GalNAc(a1-3)Gal
How it was run: as §1

GalNAc(a1-3)GalNAc = target: GalNAc(a1-3)GalNAc
How it was run: as §1

B1: SpnanA (Streptococcus pneumoniae), P62575 (protein)
chain: MVIEKEDVETNASNGQRVDLSSELDKLKKLENATVHMEFKPDAKAPAFYNLFSVSSATKKDEYFTMAVYNNTATLEGRGSDGKQFYNNYNDAPLKVKPGQWNSVTFTVEKPTAELPKGRVRLYVNGVLSRTSLRSGNFIKDMPDVTHVQIGATKRANNTVWGSNLQIRNLTVYNRALTPEEVQKRS
- glycan array binding signal (z-score) [1]: -0.283
- glycan array binding signal (z-score) [2]: -0.277
- glycan array binding signal (z-score) [3]: -0.353
- glycan array binding signal (z-score) [4]: -0.34
- glycan array binding signal (z-score) [5]: -0.36
- glycan array binding signal (z-score) [6]: -0.292
- glycan array binding signal (z-score) [7]: -0.271
- glycan array binding signal (z-score) [8]: -0.281
- glycan array binding signal (z-score) [9]: -0.28
- glycan array binding signal (z-score) [10]: -0.211
- glycan array binding signal (z-score) [11]: -0.282
- glycan array binding signal (z-score) [12]: -0.274
- glycan array binding signal (z-score) [13]: -0.133
- glycan array binding signal (z-score) [14]: -0.161
- glycan array binding signal (z-score) [15]: -0.322
- glycan array binding signal (z-score) [16]: -0.281
- glycan array binding signal (z-score) [17]: -0.29
- glycan array binding signal (z-score) [18]: -0.245
- glycan array binding signal (z-score) [19]: -0.295
- glycan array binding signal (z-score) [20]: -0.25
- glycan array binding signal (z-score) (Gal(b1-4)GlcNAc6P): -0.289
- glycan array binding signal (z-score) (Gal(b1-6)Gal): -0.199
- glycan array binding signal (z-score) (Gal3S(b1-3)GalNAc): -0.259
- glycan array binding signal (z-score) (Gal3S(b1-3)GlcNAc): -0.27
- glycan array binding signal (z-score) [21]: -0.18
- glycan array binding signal (z-score) (Gal3S(b1-4)Glc): -0.238
- glycan array binding signal (z-score) (Gal3S(b1-4)Glc6S): -0.248
- glycan array binding signal (z-score) (Gal3S(b1-4)GlcNAc): -0.171
- glycan array binding signal (z-score) (Gal3S(b1-4)GlcNAc6S): -0.248
- glycan array binding signal (z-score) [22]: -0.145
- glycan array binding signal (z-score) [23]: -0.119
- glycan array binding signal (z-score) (Gal3S4S(b1-4)GlcNAc): -0.194
- glycan array binding signal (z-score) (Gal3S6S(b1-4)GlcNAc): -0.275
- glycan array binding signal (z-score) (Gal3S6S(b1-4)GlcNAc6S): -0.297
- glycan array binding signal (z-score) (Gal4S(b1-4)GlcNAc): -0.169
- glycan array binding signal (z-score) (Gal4S6S(b1-4)GlcNAc): -0.069
- glycan array binding signal (z-score) (Gal6P(b1-4)GlcNAc): -0.161
- glycan array binding signal (z-score) (Gal6S(b1-3)GlcNAc): -0.24
- glycan array binding signal (z-score) (Gal6S(b1-3)GlcNAc6S): -0.193
- glycan array binding signal (z-score) (Gal6S(b1-4)Glc): -0.195
- glycan array binding signal (z-score) (Gal6S(b1-4)Glc6S): -0.104
- glycan array binding signal (z-score) (Gal6S(b1-4)GlcNAc): -0.198
- glycan array binding signal (z-score) (Gal6S(b1-4)GlcNAc6S): -0.166
- glycan array binding signal (z-score) (GalNAc(a1-3)Gal): -0.244
- glycan array binding signal (z-score) (GalNAc(a1-3)GalNAc): -0.233
